Source: the supplement of paper PMC4967469
Lines with a small IC50 respond at low doses; a limit (>, <) means that the fit lies beyond the doses tested. AUC is the area under the same curve over the 256-fold range up to the top dose, as a fraction; it is 1 without any effect and falls as sensitivity rises. For part of these data: Any top dose called inferred is not printed in the source and was worked back from the curve model.

Assays:
Assay in all cases: Viability of human cancer cell lines after 72 h of drug (GDSC screen)
CP724714 = compound: COCC(=O)NC/C=C/c1ccc2ncnc(Nc3ccc(Oc4ccc(C)nc4)c(C)c3)c2c1 [CP724714]; settings: top dose 10.24 µM; top dose inferred
Protocol: (§1)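 Human cancer cell lines in 384-well plates, medium with 10% serum, drug for 72 h over a 256-fold dose range (nine 2-fold or five 4-fold steps up to the top dose). Adherent lines were fixed and stained with the nucleic acid dye Syto60, suspension lines read with resazurin; signal relative to control wells, capped at 0 and 100%. One two-parameter sigmoid per drug and line, fitted in a mixed model over all curves with the slope shared within a line.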

STF-62247 = compound: Cc1cccc(Nc2nc(-c3ccncc3)cs2)c1 [STF-62247]; settings: top dose 10.24 µM; top dose inferred
Protocol: as §1

Bortezomib = compound: CC(C)C[C@H](NC(=O)[C@H](Cc1ccccc1)NC(=O)c1cnccn1)B(O)O [Bortezomib]; settings: top dose 0.02 µM
Protocol: as §1

Paclitaxel = compound: CC(=O)O[C@H]1C(=O)[C@@]2(C)[C@H]([C@H](OC(=O)c3ccccc3)[C@]3(O)C[C@H](OC(=O)[C@H](O)[C@@H](NC(=O)c4ccccc4)c4ccccc4)C(C)=C1C3(C)C)[C@]1(OC(C)=O)CO[C@@H]1C[C@@H]2O [Paclitaxel]; settings: top dose 0.1024 µM
Protocol: as §1

Obatoclax mesylate = compound: COC1=CC(c2cc3ccccc3[nH]2)=N/C1=C\c1[nH]c(C)cc1C [Obatoclax mesylate]; settings: top dose 16 µM
Protocol: as §1

CX-5461 = compound: Cc1cnc(CNC(=O)c2c(=O)c3ccc(N4CCCN(C)CC4)nc3n3c2sc2ccccc23)cn1 [CX-5461]; settings: top dose 10.24 µM; top dose inferred
Protocol: as §1

| Cell Line | AUC (CP724714) | IC50 (CP724714) | AUC (STF-62247) | IC50 (STF-62247) | AUC (Bortezomib) | IC50 (Bortezomib) | AUC (Paclitaxel) | IC50 (Paclitaxel) | AUC (Obatoclax mesylate) | IC50 (Obatoclax mesylate) | AUC (CX-5461) | IC50 (CX-5461) |
| --- | --- | --- | --- | --- | --- | --- | --- | --- | --- | --- | --- | --- |
| JSC-1 (B-cell lymphoma, suspension) | 0.967 | > 10200 nM | 0.923 | > 10200 nM | 0.517 | 1.39 nM | 0.478 | 5.57 nM | 0.145 | 79.8 nM | 0.692 | 2200 nM |
| JVM-3 (lymphoid neoplasm, suspension) | 0.973 | > 10200 nM | 0.967 | > 10200 nM | 0.845 | 14.8 nM | 0.987 | > 102 nM | 0.873 | 15800 nM | 0.901 | > 10200 nM |
| JiyoyeP-2003 (Burkitt lymphoma, suspension) | 0.991 | > 10200 nM | 0.991 | > 10200 nM | 0.662 | 3.31 nM | 0.701 | 21.7 nM | 0.28 | 261 nM | 0.939 | > 10200 nM |
| K5 (thyroid, adherent) | 0.987 | > 10200 nM | 0.977 | > 10200 nM | 0.512 | 1.34 nM | 0.827 | 59.2 nM | 0.346 | 381 nM | 0.981 | > 10200 nM |
| KALS-1 (glioma, adherent) | 0.975 | > 10200 nM | 0.958 | > 10200 nM | 0.461 | 0.941 nM | 0.41 | 3.3 nM | 0.421 | 561 nM | 0.857 | > 10200 nM |
| KARPAS-45 (lymphoblastic leukaemia, suspension) | 0.969 | > 10200 nM | 0.905 | 9740 nM | 0.642 | 2.86 nM | 0.634 | 14 nM | 0.053 | < 62.5 nM | 0.817 | 4560 nM |
| KCL-22 (chronic myeloid leukaemia, suspension) | 0.978 | > 10200 nM | 0.972 | > 10200 nM | 0.428 | 0.82 nM | 0.582 | 10.3 nM | 0.187 | 144 nM | 0.814 | 4490 nM |
| KE-37 (lymphoblastic leukaemia, suspension) | 0.993 | > 10200 nM | 0.964 | > 10200 nM | 0.553 | 1.68 nM | 0.63 | 13.3 nM | 0.024 | < 62.5 nM | 0.752 | 2720 nM |
| KINGS-1 (glioma, adherent) | 0.98 | > 10200 nM | 0.974 | > 10200 nM | 0.419 | 0.688 nM | 0.663 | 21.6 nM | 0.502 | 1020 nM | 0.806 | 7760 nM |
| KM12 (large intestine, adherent) | 0.972 | > 10200 nM | 0.964 | > 10200 nM | 0.484 | 1.12 nM | 0.521 | 7.33 nM | 0.244 | 169 nM | 0.841 | 8000 nM |
| KM-H2 (Hodgkin lymphoma, suspension) | 0.993 | > 10200 nM | 0.985 | > 10200 nM | 0.584 | 2.04 nM | 0.778 | 35.1 nM | 0.445 | 726 nM | 0.993 | > 10200 nM |
| KMOE-2 (acute myeloid leukaemia, suspension) | 0.984 | > 10200 nM | 0.877 | 8420 nM | 0.544 | 1.62 nM | 0.957 | > 102 nM | 0.299 | 292 nM | 0.882 | 8860 nM |
| KNS-42 (glioma, adherent) | 0.982 | > 10200 nM | 0.977 | > 10200 nM | 0.307 | 0.321 nM | 0.577 | 10.9 nM | 0.369 | 405 nM | 0.767 | 4530 nM |
| KNS-81-FD (glioma, adherent) | 0.981 | > 10200 nM | 0.981 | > 10200 nM | 0.599 | 2.57 nM | 0.88 | > 102 nM | 0.348 | 326 nM | 0.73 | 3730 nM |
| KP-N-YN (neuroblastoma, adherent) | 0.954 | > 10200 nM | 0.986 | > 10200 nM | 0.711 | 5.26 nM | 0.898 | > 102 nM | 0.931 | > 16000 nM | 0.945 | > 10200 nM |
| KP-N-YS (neuroblastoma, adherent) | 0.959 | > 10200 nM | 0.949 | > 10200 nM | 0.887 | > 20 nM | 0.838 | 84 nM | 0.471 | 823 nM | 0.463 | 498 nM |
| KS-1 (glioma, adherent) | 0.924 | > 10200 nM | 0.974 | > 10200 nM | 0.321 | 0.347 nM | 0.479 | 5.52 nM | 0.374 | 410 nM | 0.842 | 9930 nM |
| KU812 (chronic myeloid leukaemia, suspension) | 0.954 | > 10200 nM | 0.988 | > 10200 nM | 0.483 | 1.13 nM | 0.695 | 21.3 nM | 0.504 | 1020 nM | 0.233 | 118 nM |
| L-428 (Hodgkin lymphoma, suspension) | 0.979 | > 10200 nM | 0.99 | > 10200 nM | 0.759 | 6.22 nM | 0.893 | 96 nM | 0.367 | 451 nM | 0.993 | > 10200 nM |
| L-540 (Hodgkin lymphoma, suspension) | 0.99 | > 10200 nM | 0.984 | > 10200 nM | 0.414 | 0.749 nM | 0.797 | 42.4 nM | 0.297 | 289 nM | 0.99 | > 10200 nM |
| L-1236 (Hodgkin lymphoma, suspension) | 0.986 | > 10200 nM | 0.973 | > 10200 nM | 0.584 | 2.04 nM | 0.902 | 96.8 nM | 0.717 | 3660 nM | 0.991 | > 10200 nM |
